In PubChem BioAssay AID624171 (National Center for Advancing Translational Sciences (NCATS), 2012):
About 1,200 (0.29%) of roughly 410,000 compounds were called active. Inconclusive results, whose numbers are uncertain, are shown with a selection of clear calls. The call rests on the fitted dose curve; in most records, active means well fitted activation curve with a large enough effect; inconclusive means small, poorly fitted or top-dose-only effect; inactive means flat fitted curve, though single readings scatter. Where the call is inconclusive, the potency comes from a doubtful curve fit.

Assay: qHTS of Nrf2 Activators; further: nearly all actives have a fitted effect of over 65% in size
Conditions: AREc32 ARE-luciferase reporter (MCF7-derived line), luminescence, 24 h; series mostly up to 46.1 µM
How it was run: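 For detection, Steady-Glo was added and plates sat 30 min at RT; before that, AREc32_Fluc cells grown overnight in OPTI-MEM/5% FBS had been treated with 23 nL compound for 24 hr at 37 deg C.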
Potency means the concentration at half of the fitted maximal effect; tags describe the fitted curve by direction and shape.

Compound | Potency
CCC(C)(C)n1nnnc1C(c1ccc(O)c(OC)c1)N1CCN(c2nc3ccccc3s2)CC1 (stereo unspecified) | inconclusive: 15.8 µM [activator, single point]
O=C(CCNS(=O)(=O)c1ccc(OC(F)(F)F)cc1)N1CCN(C/C=C/c2ccccc2)CC1 | inactive
CCNc1nc(NCC)nc(N(C)/N=C/c2ccco2)n1 | inconclusive: 1.41 µM [activator, full curve, poor fit]
Clc1ccc(Cl)c(-c2nc(-c3ccncc3)no2)c1 | inconclusive: 10 µM [activator, partial curve, poor fit]
O=C1OC(c2ccc(F)cc2)CC1CN1CCOCC1 (stereo unspecified) | inconclusive: 25.1 µM [activator, single point]
O=C(CCN1C(=O)/C(=C/c2ccccc2)SC1=S)N1CCCCCC1 | inconclusive: 3.55 µM [activator, full curve]
O=C(N/N=C/C(Br)=C/c1ccccc1)C(O)c1ccccc1 (stereo unspecified) | active: 11.2 µM
Cc1cc2nn(-c3ccccc3)nc2cc1NC(=O)c1cccs1 | active: 7.08 µM
CC(=O)Nc1ccc(NC(=O)c2cc3c(=O)n(Cc4cccnc4)ccc3nc2C)cc1 | inactive
CC1(C(=O)N/N=C/c2c(F)c(F)c(F)c(F)c2F)CC1(Cl)Cl (stereo unspecified) | inconclusive: 35.5 µM [activator, single point]
Nc1nc(N)c2cc([N+](=O)[O-])ccc2n1 | inactive
O=C1N=C(N2CCOCC2)SC1=Cc1ccco1 | inconclusive: 7.08 µM [activator, partial curve]
CCCCc1cc(=O)oc2cc(OCC(=O)Nc3ccccn3)ccc12 | active: 12.6 µM
O=c1cc(-c2ccccc2)nc2cc(-c3ccc(Br)cc3)[nH]n12 | inactive
Cc1ccc(NC(=O)c2ncoc2-c2ccco2)cc1Cl | inconclusive: 12.6 µM [activator, partial curve]
COC(=O)c1ccc2c(c1)C(C)(C)C(/C=C/c1ccc(O)cc1)=[N+]2C | inconclusive: 5.62 µM [activator, single point]
Cc1ccc(-c2nc3ncccc3o2)cc1NC(=O)c1ccc([N+](=O)[O-])o1 | inconclusive: 3.98 µM [activator, single point]
Cc1ccsc1C1C=C(c2cccc(Br)c2)Nc2ncnn21 (stereo unspecified) | active: 7.94 µM
O=C(OCC(=O)N1CCCCC1)c1cc(NS(=O)(=O)c2ccc(Cl)c([N+](=O)[O-])c2)ccc1O | inconclusive: 31.6 µM [activator, single point]
C/C(=N\NC(=O)c1ccco1)c1cc(Cl)sc1Cl | inconclusive: 2.51 µM [activator, full curve, poor fit]
COc1ccc(N2C(=O)/C(=C\c3ccco3)N=C2SCC(=O)NC(C)(C)C)cc1Cl | inconclusive: 17.8 µM [activator, single point]
Cn1c(SCC(=O)N2CCCC2=O)nc2ccccc21 | inactive
C=C1CCC[C@]2(C)C[C@H]3OC(=O)C(CNC(C)(CO)CO)[C@H]3CC12 (stereo partly specified) | inconclusive: 3.16 µM [activator, partial curve, poor fit]
CCN(C(=O)C1CCCN(c2ncnc3c2nc2n3CCCCC2)C1)c1cccc(C)c1 (stereo unspecified) | inactive

Compound | Potency
O=[N+]([O-])c1ccc(Oc2cccc(Br)c2)c2ccncc12 | inconclusive: 17.8 µM [activator, single point]
CS(=O)(=O)c1nc(S(=O)(=O)c2ccc(Cl)cc2)c(N2CCC(O)CC2)s1 | inconclusive: 7.94 µM [activator, partial curve]
COC(=O)Cc1cc(=O)[nH]c(Nc2nc3ccccc3o2)n1 | inconclusive: 15.8 µM [activator, single point]
COC(=O)c1sc2cccc(F)c2c1S(=O)(=O)Nc1ccc(C)cc1Cl | inconclusive: 17.8 µM [activator, single point]
Nc1ccc(Sc2cnn(-c3ccccc3)c(=O)c2Cl)cc1 | active: 15.8 µM
O=c1[nH]c(/C(Cl)=C/c2cc(Cl)ccc2O)nc2cc(Cl)ccc12 | active: 8.91 µM
O=C(N/N=C/c1ccc(-c2cccc([N+](=O)[O-])c2)o1)c1cccs1 | inconclusive: 0.562 µM [activator, full curve, poor fit]
CC(C)(C)c1nnc2sc(SCC(=O)c3ccc(Cl)cc3)nn2c1=O | inconclusive: 31.6 µM [activator, single point]
Cc1ccc(-c2nn(CCC(=O)O)cc2/C=C\C(=O)c2ccc(Br)cc2)cc1 | inconclusive: 22.4 µM [activator, single point]
Cc1ccccc1C(=O)OCC(=O)NCc1ccco1 | inconclusive: 3.55 µM [activator, partial curve]
COc1cccc2c(Cl)c(CCCl)c(C)nc12 | inconclusive: 11.2 µM [activator, partial curve]
O=C(N/N=C/c1cccc(Oc2ccc([N+](=O)[O-])cc2[N+](=O)[O-])c1)c1cncc(Br)c1 | inconclusive: 22.4 µM [activator, single point]
O=C(CSc1nc2cc(Cl)ccc2s1)c1ccco1 | inconclusive: 5.62 µM [activator, full curve, poor fit]
Cn1c(NC(=O)c2ccc(F)cc2)nc2ccccc21 | inconclusive: 3.16 µM [activator, partial curve, poor fit]
O=C(Nc1cc(SCCO)cc([N+](=O)[O-])c1)c1ccco1 | inconclusive: 11.2 µM [activator, partial curve]
O=C1/C(=C\c2ccco2)SC(=S)N1c1ccccc1 | inconclusive: 10 µM [activator, partial curve]
Cc1ccc(NC(=S)NNc2ccc([N+](=O)[O-])cc2S(=O)(=O)Nc2ccccc2C(=O)O)cc1C | inconclusive: 35.5 µM [activator, single point]
O=c1[nH]nc(SCCS(=O)(=O)c2ccc(F)cc2)n1-c1ccccc1 | active: 12.6 µM
CC(=O)c1ccc(NC(=O)Nc2ccc3c(c2)nc(C)n3C)cc1 | inactive
COCCCNC(=O)CSc1nc2cc3c(cc2c(=O)n1CCCCCC(=O)NCc1ccc2c(c1)OCO2)OCO3 | inactive
O=P(OCC1CCCO1)(OCC1CCCO1)OCC1CCCO1 (stereo unspecified) | inactive
Cc1cccc(OCC(=O)N/N=C/C=C/c2ccco2)c1 | active: 22.4 µM
Cc1ccc(C(=O)/C=C/C(=O)O)cc1 | active: 22.4 µM
Cc1ccccc1C(=O)O/N=C(\N)c1ccccc1 | inconclusive: 7.08 µM [activator, partial curve, poor fit]

Compound | Potency
Cc1ccc(C(=O)OCc2c(C)noc2C)cc1NC(=O)c1ccco1 | active: 3.98 µM
c1ccc(-c2noc(-c3cccnc3)n2)cc1 | active: 3.16 µM
Clc1nc(CN2CCCCC2)nc2sc3c(c12)CCCC3 | inconclusive: 17.8 µM [activator, single point]
Cc1cc(C)n2nc(/C(C#N)=C/c3ccccn3)c(C#N)c2n1 | active: 7.94 µM
COc1ccc(OC)c(C=Cc2ccc([N+](=O)[O-])cc2)c1 | inconclusive: 10 µM [activator, partial curve]
O=C(CS(=O)c1ccc(C(F)(F)F)cc1[N+](=O)[O-])Oc1ccc(Cl)cc1 (stereo unspecified) | inconclusive: 22.4 µM [activator, partial curve, poor fit]
CCOc1ccccc1NC(=O)c1c(Br)cnn1C | inconclusive: 12.6 µM [activator, partial curve]
Cc1ccc(OCCCCn2nnc3sc4c(c3c2=O)CCCC4)cc1 | inactive
CC(=O)Nc1ccc(NC(=O)C(C)OC(=O)c2ccccc2C(=O)c2ccc(Cl)c([N+](=O)[O-])c2)cc1 (stereo unspecified) | inconclusive: 15.8 µM [activator, partial curve, poor fit]
O=[N+]([O-])c1cc(S(=O)(=O)NCCN2CCOCC2)ccc1Cl | inconclusive: 22.4 µM [activator, single point]
S=c1[nH]nc(-c2ccco2)n1/N=C/c1cccc(Cl)c1Cl | active: 8.91 µM
CC(C)C(=O)OCc1cn(-c2ccc(Cl)c(Cl)c2)nn1 | inactive
CCc1ccc(NC(=O)CN(c2ccc(C)cc2)S(=O)(=O)c2cccs2)cc1 | inactive
Cc1ccccc1NC(=O)Cc1nc(COC(=O)c2ncc(Cl)c(Cl)c2Cl)cs1 | inconclusive: 35.5 µM [activator, single point]
COc1ccc(N=C(C)C2=C(O)c3ccccc3C2=O)cc1 | inactive
Cc1cc(C(=O)Nc2cccc3ccccc23)oc1C | inconclusive: 15.8 µM [activator, partial curve, poor fit]
CCOC(=O)N1CCN(C(=O)c2ccc(CSc3ccc(Cl)cc3)cc2)CC1 | inactive
CCN(CC)CCNC(=O)c1cc(-c2ccco2)nc2ccccc12 | inconclusive: 31.6 µM [activator, single point]
O=C(Nc1ccccc1C(F)(F)F)c1cc(-c2ccco2)on1 | inconclusive: 12.6 µM [activator, partial curve, poor fit]
COc1ccccc1/C=C1/SC(=S)N(C(C)C(=O)NC2C=CS(=O)(=O)C2)C1=O (stereo unspecified) | inconclusive: 22.4 µM [activator, single point]
Cc1cc(-c2csc(NC(=O)c3cccc(S(=O)(=O)N(C)C)c3)n2)c(C)n1-c1ccccc1 | inactive
O=C(COC(=O)c1nc(Cl)c(Cl)c(Cl)c1Cl)NCc1ccccc1 | inconclusive: 15.8 µM [activator, partial curve, poor fit]
Cc1ccc(CNC(=O)c2sccc2-n2cccc2)cc1 | inconclusive: 10 µM [activator, partial curve]
